This is one part of the list. The energies were worked out here from pooled read counts, against the library average; single values are noisy.
What follows are sequences tested against T1, Pho4 (S. cerevisiae) (UniProt P07270) (assay: relative binding free energy (BET-seq); higher = weaker binding). Conditions: reference: library average.
T1 sequence: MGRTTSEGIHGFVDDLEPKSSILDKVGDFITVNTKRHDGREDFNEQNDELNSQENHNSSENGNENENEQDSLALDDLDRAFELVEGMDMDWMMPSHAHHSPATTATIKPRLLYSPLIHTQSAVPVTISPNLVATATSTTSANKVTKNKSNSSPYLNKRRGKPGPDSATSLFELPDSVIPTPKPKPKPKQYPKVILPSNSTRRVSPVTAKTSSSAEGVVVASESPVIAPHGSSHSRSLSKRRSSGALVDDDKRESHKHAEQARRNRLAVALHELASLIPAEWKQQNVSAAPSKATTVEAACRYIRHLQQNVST

Row | Sequence | relative binding free energy [kcal/mol]
1 | TTTTGCACGTGGTGGG | -0.04
2 | TTCGACACGTGGTAGT | 0.04
3 | TTGAGCACGTGTTGCA | -0.16
4 | CCAGGCACGTGTAGGG | -0.12
5 | AGCTGCACGTGGTGGC | -0.02
6 | GATAACACGTGTGGGA | 0.05
7 | GAGGGCACGTGTTGCT | -0.08
8 | GTGTGCACGTGTACAT | 0.05
9 | ACGCTCACGTGGGGGC | 0.14
10 | GGCGGCACGTGATTTT | 0.05
11 | TGTAGCACGTGGGTGG | -0.14
12 | GTTAACACGTGCGTTA | -0.07
13 | TAGCGCACGTGTATTG | -0.09
14 | GGGGTCACGTGTGTTC | 0.17
15 | TCTCTCACGTGGTGGG | 0.15
16 | AAAATCACGTGGCGGT | 0.2
17 | TTATGCACGTGATTGG | 0.18
18 | AGATGCACGTGTTTTT | 0.01
19 | TGTAACACGTGAAGAT | 0.15
20 | TTTGACACGTGGCTGG | -0.03
21 | AGTATCACGTGTAAGT | 0.11
22 | AGTTCCACGTGTTGTC | 0.05
23 | AGAAGCACGTGGAAGG | -0.07

Row | Sequence | relative binding free energy [kcal/mol]
24 | TAGAGCACGTGTCTGG | -0.02
25 | GGTATCACGTGTAATG | 0.36
26 | TGGATCACGTGTATGA | 0.14
27 | GGTCGCACGTGGATTA | 0.05
28 | GCGGGCACGTGGGCCG | -0.26
29 | GTTAGCACGTGACTTT | 0.21
30 | TTTGCCACGTGGTGGG | -0.17
31 | ACGGTCACGTGGTGTG | 0
32 | AATTACACGTGGGTAG | -0.03
33 | TGTTACACGTGGCGTT | 0.04
34 | TGTATCACGTGTTTGA | 0.08
35 | ATTAGCACGTGGGATA | -0.21
36 | TATCGCACGTGTTAGG | -0.12
37 | TAGATCACGTGAGGTA | 0.28
38 | GTGACCACGTGGAGGG | -0.04
39 | GGGGGCACGTGGCTCG | -0.13
40 | CTTGTCACGTGTCAGT | 0.01
41 | TGTGGCACGTGCGTCG | -0.2
42 | TGGGCCACGTGGCTGG | -0.04
43 | TAGGTCACGTGGTGAT | 0.12
44 | TTACGCACGTGGTTTT | 0.02
45 | AGGATCACGTGTGTAT | 0.2
46 | TAGATCACGTGATGTT | 0.28

Row | Sequence | relative binding free energy [kcal/mol]
47 | GTGCGCACGTGGGTAA | -0.2
48 | GGGGTCACGTGTTGGA | 0.29
49 | GACAGCACGTGGGTGT | -0.29
50 | TATGTCACGTGGGACG | -0.09
51 | GAGTGCACGTGTCTGT | -0.02
52 | GGTCGCACGTGGGTTC | -0.09
53 | AGTTGCACGTGAAATT | 0.34
54 | TGGCGCACGTGGGCCG | -0.23
55 | GTATACACGTGTTTCT | 0.15
56 | GTGGGCACGTGGTAAG | 0
57 | AGGGGCACGTGTGAAG | -0.05
58 | TGTGCCACGTGTGCAT | -0.13
59 | TGTCACACGTGTCGGA | 0.25
60 | GATAGCACGTGGGGCG | -0.14
61 | TGCATCACGTGTAGGG | 0.04
62 | CGGACCACGTGATGGG | 0.18
63 | CCGTTCACGTGTGGAT | 0.33
64 | ATATTCACGTGTTGGA | 0.22
65 | GGCTCCACGTGCGGGT | 0.05
66 | GTCTTCACGTGATGAG | 0.29
67 | ATAAGCACGTGGGTGA | -0.3
68 | TAGTGCACGTGAGGAA | 0.01
69 | TCGGGCACGTGTTGAA | -0.02

Row | Sequence | relative binding free energy [kcal/mol]
70 | TGTTGCACGTGGAGGG | -0.02
71 | TTAGGCACGTGGTCGG | -0.15
72 | GAGTACACGTGGTGAT | -0.01
73 | TTTCGCACGTGGATAG | -0.05
74 | TTTATCACGTGGGGGA | -0.02
75 | GTCAACACGTGTAGGG | 0.02
76 | TTGGACACGTGTCGGA | 0.26
77 | GTTTGCACGTGTAACT | 0.17
78 | GCTTTCACGTGATTTA | 0.41
79 | TAGATCACGTGTATGG | 0.18
80 | TATGTCACGTGACGGG | 0.26
81 | TACTGCACGTGATGGT | -0.08
82 | AAGTACACGTGGGGTG | -0.13
83 | CGTTACACGTGATGAG | 0.19
84 | TGTCGCACGTGCAGGC | 0.08
85 | TTTAACACGTGTGTGA | -0.05
86 | ACTGTCACGTGATAGG | 0.09
87 | GATGCCACGTGGTTTT | -0.01
88 | TGATTCACGTGTGAAG | 0.25
89 | CGGGTCACGTGTGGTG | 0.19
90 | ATTGACACGTGATGTT | 0.08
91 | TCTTCCACGTGTTTGT | 0.01
92 | GTGAGCACGTGGGTGT | -0.19

Row | Sequence | relative binding free energy [kcal/mol]
93 | GAAAACACGTGGGGTA | -0.01
94 | ATGGACACGTGTTGTG | 0.04
95 | AGTTTCACGTGGCGTT | 0.35
96 | GTATGCACGTGGCGGG | -0.18
97 | TATTACACGTGCTTGA | 0.13
98 | TGGAGCACGTGGTGCG | -0.21
99 | GGTGGCACGTGGACTG | 0.04
100 | TGCACCACGTGGGGGG | -0.24
101 | GGAGGCACGTGTGGCG | 0.01
102 | ATGATCACGTGATATT | 0.19
103 | GTGACCACGTGTAGTT | 0.01
104 | TGGGGCACGTGATCGG | 0.03
105 | TGGGTCACGTGAGTGA | 0.2
106 | GTTCTCACGTGGTGAG | 0.3
107 | GGATGCACGTGGGTCT | -0.14
108 | ACGGGCACGTGCCGGG | -0.16
109 | TATGACACGTGTTTAA | -0.03
110 | AAAGACACGTGTAGGG | 0.03
111 | TGCGTCACGTGGGTGG | -0.03
112 | TTTACCACGTGTTTAT | -0.1
113 | CTGGTCACGTGGGTGC | 0.04
114 | TGTTGCACGTGAGTTC | 0.23
115 | TTACGCACGTGATGGA | -0.04
